# Measured values reported in the supplement of paper PMC8728848.
# The list shows a part of the results.
# B1: LSectin (Mus musculus), Q8BNX1 (protein)
# chain: MNTGEYNKLGSAIEEVSRGQLGRWECYKQRLFFLVLALLVATVLWALILSTLLSSASSKLRVLLSHQDLLRTNASEQKMTLSSLKDDIGACRNCCSVTKAQLQTTLAEFKDIQAKLMEQESILKELQERVTQDLAKASRDRENIRSELFQALEAVKRQNSSCEQCPPSWLPFQGSCYYFSETQATWDTAQSYCGGQGAHLVIVRGLNEQGFLSQHTRGRGYWLGLRAVRHLNKIQGYRWVDGASLNFSHWNSGEPNDSRGHEDCIMMLHSGLWNDAPCTNERDGWICEKRSSCY
# What was measured:
# Experiment in all cases: glycan array binding signal (z-score within array); higher = stronger binding
# Conditions in all cases: glycan notation: IUPAC condensed, linker removed
# Kdn(a2-3)Gal(b1-3)GalNAc = molecular target: Kdn(a2-3)Gal(b1-3)GalNAc
# Method in brief: (§1)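 Negative Z-scores can be read as non-binding. The Z-score is calculated within each array and then averaged across arrays of one protein sequence at different concentrations or buffers and across linkers. Arrays, 3228 in all, were curated from the Consortium for Functional Glycomics database and kept only where the protein sequence was available.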
# Kdn(a2-3)Gal(b1-3)GlcNAc = molecular target: Kdn(a2-3)Gal(b1-3)GlcNAc
# Method in brief: as §1
# Kdn(a2-3)Gal(b1-4)Glc = molecular target: Kdn(a2-3)Gal(b1-4)Glc
# Method in brief: as §1
# Kdn(a2-3)Gal(b1-4)GlcNAc = molecular target: Kdn(a2-3)Gal(b1-4)GlcNAc
# Method in brief: as §1
# [1] = molecular target: Kdn(a2-3)Gal(b1-4)[Fuc(a1-3)]GlcNAc
# Method in brief: as §1
# Kdn(a2-6)Gal(b1-4)GlcNAc = molecular target: Kdn(a2-6)Gal(b1-4)GlcNAc
# Method in brief: as §1
# [2] = molecular target: Man(a1-2)Man(a1-2)Man(a1-3)Man
# Method in brief: as §1
# [3] = molecular target: Man(a1-2)Man(a1-2)Man(a1-6)[Man(a1-3)]Man
# Method in brief: as §1
# Man(a1-2)Man(a1-3)Man = molecular target: Man(a1-2)Man(a1-3)Man
# Method in brief: as §1
# [4] = molecular target: Man(a1-2)Man(a1-3)[Man(a1-2)Man(a1-6)]Man
# Method in brief: as §1
# [5] = molecular target: Man(a1-2)Man(a1-3)[Man(a1-2)Man(a1-6)]Man(a1-6)[Man(a1-2)Man(a1-2)Man(a1-3)]Man
# Method in brief: as §1
# [6] = molecular target: Man(a1-2)Man(a1-3)[Man(a1-2)Man(a1-6)]Man(a1-6)[Man(a1-2)Man(a1-2)Man(a1-3)]Man(b1-4)GlcNAc(b1-4)GlcNAc
# Method in brief: as §1
# [7] = molecular target: Man(a1-2)Man(a1-3)[Man(a1-6)]Man(a1-6)[Man(a1-2)Man(a1-3)]Man(b1-4)GlcNAc(b1-4)GlcNAc
# Method in brief: as §1
# [8] = molecular target: Man(a1-2)Man(a1-6)[Man(a1-3)]Man(a1-6)[Man(a1-2)Man(a1-2)Man(a1-3)]Man
# Method in brief: as §1
# [9] = molecular target: Man(a1-2)Man(a1-6)[Man(a1-3)]Man(a1-6)[Man(a1-2)Man(a1-2)Man(a1-3)]Man(b1-4)GlcNAc(b1-4)GlcNAc
# Method in brief: as §1
# Man(a1-3)[Man(a1-6)]Man = molecular target: Man(a1-3)[Man(a1-6)]Man
# Method in brief: as §1
# [10] = molecular target: Man(a1-3)[Man(a1-6)]Man(a1-6)[Man(a1-2)Man(a1-3)]Man(b1-4)GlcNAc(b1-4)GlcNAc
# Method in brief: as §1
# [11] = molecular target: Man(a1-3)[Man(a1-6)]Man(a1-6)[Man(a1-3)]Man
# Method in brief: as §1
# [12] = molecular target: Man(a1-3)[Man(a1-6)]Man(a1-6)[Man(a1-3)]Man(b1-4)GlcNAc(b1-4)GlcNAc
# Method in brief: as §1
# [13] = molecular target: Man(a1-3)[Man(a1-6)]Man(b1-4)GlcNAc(b1-4)GlcNAc
# Method in brief: as §1
# Man(a1-6)Man = molecular target: Man(a1-6)Man
# Method in brief: as §1
# Man(b1-4)GlcNAc = molecular target: Man(b1-4)GlcNAc
# Method in brief: as §1
# Neu5Ac(a2-3)Gal = molecular target: Neu5Ac(a2-3)Gal
# Method in brief: as §1
# [14] = molecular target: Neu5Ac(a2-3)Gal(b1-3)GalNAc
# Method in brief: as §1
# [15] = molecular target: Neu5Ac(a2-3)Gal(b1-3)GalNAc(b1-3)Gal(a1-4)Gal(b1-4)Glc
# Method in brief: as §1
# [16] = molecular target: Neu5Ac(a2-3)Gal(b1-3)GalNAc(b1-3)Gal(b1-4)GlcNAc
# Method in brief: as §1
# [17] = molecular target: Neu5Ac(a2-3)Gal(b1-3)GalNAc(b1-4)[Neu5Ac(a2-3)]Gal(b1-4)Glc
# Method in brief: as §1
# [18] = molecular target: Neu5Ac(a2-3)Gal(b1-3)GalNAc(b1-4)[Neu5Ac(a2-8)Neu5Ac(a2-3)]Gal(b1-4)Glc
# Method in brief: as §1
# [19] = molecular target: Neu5Ac(a2-3)Gal(b1-3)GalNAc6S
# Method in brief: as §1
# [20] = molecular target: Neu5Ac(a2-3)Gal(b1-3)GlcNAc
# Method in brief: as §1
# [21] = molecular target: Neu5Ac(a2-3)Gal(b1-3)GlcNAc(b1-2)Man(a1-3)[Neu5Ac(a2-3)Gal(b1-3)GlcNAc(b1-2)Man(a1-6)]Man(b1-4)GlcNAc(b1-4)GlcNAc
# Method in brief: as §1
# [22] = molecular target: Neu5Ac(a2-3)Gal(b1-3)GlcNAc(b1-3)Gal(b1-3)GlcNAc
# Method in brief: as §1
# [23] = molecular target: Neu5Ac(a2-3)Gal(b1-3)GlcNAc(b1-3)Gal(b1-4)GlcNAc
# Method in brief: as §1
# [24] = molecular target: Neu5Ac(a2-3)Gal(b1-3)GlcNAc(b1-3)GalNAc
# Method in brief: as §1
# [25] = molecular target: Neu5Ac(a2-3)Gal(b1-3)GlcNAc6S
# Method in brief: as §1
# [26] = molecular target: Neu5Ac(a2-3)Gal(b1-3)[Fuc(a1-4)]GlcNAc
# Method in brief: as §1
# [27] = molecular target: Neu5Ac(a2-3)Gal(b1-3)[Fuc(a1-4)]GlcNAc(b1-3)Gal(b1-3)[Fuc(a1-4)]GlcNAc
# Method in brief: as §1
# [28] = molecular target: Neu5Ac(a2-3)Gal(b1-3)[Fuc(a1-4)]GlcNAc(b1-3)Gal(b1-4)[Fuc(a1-3)]GlcNAc
# Method in brief: as §1
binder,measurement,setting,value
B1,glycan array binding signal (z-score),Kdn(a2-3)Gal(b1-3)GalNAc,-0.194
same,glycan array binding signal (z-score),Kdn(a2-3)Gal(b1-3)GlcNAc,-0.159
same,glycan array binding signal (z-score),Kdn(a2-3)Gal(b1-4)Glc,-0.189
same,glycan array binding signal (z-score),Kdn(a2-3)Gal(b1-4)GlcNAc,-0.15
same,glycan array binding signal (z-score),[1],-0.191
same,glycan array binding signal (z-score),Kdn(a2-6)Gal(b1-4)GlcNAc,-0.192
same,glycan array binding signal (z-score),[2],-0.166
same,glycan array binding signal (z-score),[3],-0.186
same,glycan array binding signal (z-score),Man(a1-2)Man(a1-3)Man,-0.133
same,glycan array binding signal (z-score),[4],-0.178
same,glycan array binding signal (z-score),[5],-0.165
same,glycan array binding signal (z-score),[6],-0.175
same,glycan array binding signal (z-score),[7],-0.172
same,glycan array binding signal (z-score),[8],-0.177
same,glycan array binding signal (z-score),[9],-0.184
same,glycan array binding signal (z-score),Man(a1-3)[Man(a1-6)]Man,-0.163
same,glycan array binding signal (z-score),[10],0.098
same,glycan array binding signal (z-score),[11],-0.171
same,glycan array binding signal (z-score),[12],-0.172
same,glycan array binding signal (z-score),[13],-0.021
same,glycan array binding signal (z-score),Man(a1-6)Man,-0.173
same,glycan array binding signal (z-score),Man(b1-4)GlcNAc,-0.174
same,glycan array binding signal (z-score),Neu5Ac(a2-3)Gal,-0.148
same,glycan array binding signal (z-score),[14],-0.171
same,glycan array binding signal (z-score),[15],-0.166
same,glycan array binding signal (z-score),[16],-0.172
same,glycan array binding signal (z-score),[17],-0.184
same,glycan array binding signal (z-score),[18],-0.175
same,glycan array binding signal (z-score),[19],-0.155
same,glycan array binding signal (z-score),[20],-0.154
same,glycan array binding signal (z-score),[21],-0.171
same,glycan array binding signal (z-score),[22],-0.178
same,glycan array binding signal (z-score),[23],-0.186
same,glycan array binding signal (z-score),[24],-0.197
same,glycan array binding signal (z-score),[25],-0.188
same,glycan array binding signal (z-score),[26],-0.162
same,glycan array binding signal (z-score),[27],-0.184
same,glycan array binding signal (z-score),[28],-0.149
